Test results reported in paper PMC4336329 (PLoS ONE, 2015).
Out of some 310,000 compounds screened, about 14,000 (4.5%) showed an effect of 50% or more. The effect is printed as a negative number. Some of the results follow.
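Note: peak tail current of the secondary pulse compared with the same well before compound.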

The compounds below were run against human ether-à-go-go-related gene (hERG) potassium channel (human, UniProt Q12809) (assay: primary screen, population patch clamp on CHO cells stably expressing hERG).
Sequence of human ether-à-go-go-related gene (hERG) potassium channel (Q12809 whole entry, looked up): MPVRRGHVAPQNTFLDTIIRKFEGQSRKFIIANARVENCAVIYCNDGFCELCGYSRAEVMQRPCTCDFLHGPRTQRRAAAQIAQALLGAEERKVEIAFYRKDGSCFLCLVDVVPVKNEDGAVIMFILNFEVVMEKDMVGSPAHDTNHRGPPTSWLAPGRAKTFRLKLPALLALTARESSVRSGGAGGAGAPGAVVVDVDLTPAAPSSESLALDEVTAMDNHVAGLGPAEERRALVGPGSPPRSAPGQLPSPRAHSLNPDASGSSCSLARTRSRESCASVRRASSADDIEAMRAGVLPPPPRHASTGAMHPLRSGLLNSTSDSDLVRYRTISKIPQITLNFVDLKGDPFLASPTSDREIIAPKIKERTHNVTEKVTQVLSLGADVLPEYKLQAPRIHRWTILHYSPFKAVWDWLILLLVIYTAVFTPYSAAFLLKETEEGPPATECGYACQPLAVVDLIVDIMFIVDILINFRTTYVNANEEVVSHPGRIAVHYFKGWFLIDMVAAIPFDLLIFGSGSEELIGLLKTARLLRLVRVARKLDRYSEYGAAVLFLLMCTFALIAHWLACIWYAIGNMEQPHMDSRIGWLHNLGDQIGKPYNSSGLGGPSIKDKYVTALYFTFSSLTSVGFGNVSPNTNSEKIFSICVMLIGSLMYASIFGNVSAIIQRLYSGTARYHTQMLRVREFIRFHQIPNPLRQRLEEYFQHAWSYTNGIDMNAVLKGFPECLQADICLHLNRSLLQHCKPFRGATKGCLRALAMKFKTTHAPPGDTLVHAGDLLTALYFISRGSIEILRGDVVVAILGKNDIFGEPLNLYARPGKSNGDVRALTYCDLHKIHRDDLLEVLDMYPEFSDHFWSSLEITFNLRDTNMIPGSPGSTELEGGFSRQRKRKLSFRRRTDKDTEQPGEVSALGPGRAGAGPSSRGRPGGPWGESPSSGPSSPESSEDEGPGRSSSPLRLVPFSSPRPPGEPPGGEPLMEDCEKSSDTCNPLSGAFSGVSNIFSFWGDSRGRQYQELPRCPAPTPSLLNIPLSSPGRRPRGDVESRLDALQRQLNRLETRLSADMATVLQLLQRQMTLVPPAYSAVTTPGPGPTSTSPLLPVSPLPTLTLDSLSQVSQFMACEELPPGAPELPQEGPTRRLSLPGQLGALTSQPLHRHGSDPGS
CCOC(=O)C(C)c1n[nH]c(=O)c2ccccc12 (stereo not drawn) was tested, and the “hERG current change (%, negative = inhibition) at 10uM” value was 0.668%.
For CCCCOC(=O)N1CCOCCOCCOCC1, the “hERG current change (%, negative = inhibition) at 10uM” value was 10.8%.
With Cc1cc(/C=N/n2cnnc2)c(C)n1-c1ccc(Cl)cc1 the “hERG current change (%, negative = inhibition) at 10uM” value was -13.6%.
In the case of Cc1ccc(CNC(=O)C(=O)NCCC2=CCCCC2)cc1, the “hERG current change (%, negative = inhibition) at 10uM” value is reported as 17%.
In the case of CCN(CC)c1ccc(S(=O)(=O)N2CCOCC2)cc1NC(=O)Cn1nc(C)c([N+](=O)[O-])c1C, the “hERG current change (%, negative = inhibition) at 10uM” value is reported as -44%.
COc1cccc(N2CCN(C(=S)Nc3cc(C)cc(C)c3)CC2)c1 was tested, and the “hERG current change (%, negative = inhibition) at 10uM” value was 22.4%.
With c1ccc(-c2ccc3ccccc3n2)cc1 the “hERG current change (%, negative = inhibition) at 10uM” value was -2.62%.
In the case of CCO/N=C(\C)c1c(O)c2ccccc2n(C)c1=O, the “hERG current change (%, negative = inhibition) at 10uM” value is reported as 9.54%.
OCCN1C[C@H](O)[C@@H](O)[C@H](O)[C@H]1CO was tested, and the “hERG current change (%, negative = inhibition) at 10uM” value was -2.47%.
With C/C=C(\C)C(=O)Nc1cccc(C2=NOC3(C2)C[C@@H](C(N)=O)N(C(=O)c2cc([N+](=O)[O-])cc([N+](=O)[O-])c2C)C3)c1 (stereo partly drawn) the “hERG current change (%, negative = inhibition) at 10uM” value was -7.16%.
For CC(C)Oc1ccccc1C1NC(=O)CCC1[N+](=O)[O-] (stereo not drawn), the “hERG current change (%, negative = inhibition) at 10uM” value was 18%.
With O=C(c1ccc(Cl)cc1)c1cnc(Nc2ccccc2)s1 the “hERG current change (%, negative = inhibition) at 10uM” value was 10.7%.
In the case of C(=N\n1cnnc1)/c1ccc(OCc2ccccc2)cc1, the “hERG current change (%, negative = inhibition) at 10uM” value is reported as -10.9%.
CCC(C)NS(=O)(=O)c1ccc(OCC(=O)Nc2ccc(F)cc2F)cc1 (stereo not drawn) was tested, and the “hERG current change (%, negative = inhibition) at 10uM” value was -2.06%.
With Cc1ccc(S(=O)(=O)NCc2ccccc2)cc1C(=O)N(C)CC(=O)Nc1c(Cl)cccc1Cl the “hERG current change (%, negative = inhibition) at 10uM” value was -30.4%.
With COc1ccccc1/C=C/C(=O)NCC(=O)N/N=C/c1cccnc1 the “hERG current change (%, negative = inhibition) at 10uM” value was 16.8%.
In the case of O=C(NCc1ccccc1)/C(=C/c1cccc([N+](=O)[O-])c1)NC(=O)c1ccco1, the “hERG current change (%, negative = inhibition) at 10uM” value is reported as -61.2%.
CCC1=C(c2ccc(C)cc2)S(=O)(=O)N=C1N1CCC(C(=O)NCCCN2CCCCC2)CC1 was tested, and the “hERG current change (%, negative = inhibition) at 10uM” value was 20.5%.
With Cc1ccc(NC(=O)N2CCCC2C(=O)Nc2ccc3c(c2)OCO3)cc1 (stereo not drawn) the “hERG current change (%, negative = inhibition) at 10uM” value was 1.95%.
CCOc1ccc(-c2nonc2NC(=O)c2ccco2)cc1 was tested, and the “hERG current change (%, negative = inhibition) at 10uM” value was -0.579%.
c1ccc(-c2n[nH]c3c2CCC3)cc1 was tested, and the “hERG current change (%, negative = inhibition) at 10uM” value was 4.75%.
For Cc1cccc(N(CC(=O)N2CCCCCC2)S(C)(=O)=O)c1C, the “hERG current change (%, negative = inhibition) at 10uM” value was 8.62%.
With CC(C)C(=O)Nc1ccc(C(=O)N2CCCCCC2)cc1 the “hERG current change (%, negative = inhibition) at 10uM” value was 0.706%.
Cc1cc(C)cc(NC(=O)C(C)N2C(=O)c3ccccc3C2=O)c1 (stereo not drawn) was tested, and the “hERG current change (%, negative = inhibition) at 10uM” value was 11.1%.
COc1cccc(C2=NOC(C(=O)Nc3cc(C)nn3-c3ccccc3)C2)c1OC (stereo not drawn) was tested, and the “hERG current change (%, negative = inhibition) at 10uM” value was -18.2%.
CC1CCCCN1C(=O)Nc1cccc(C(F)(F)F)c1 (stereo not drawn) was tested, and the “hERG current change (%, negative = inhibition) at 10uM” value was 3.28%.
O=C(CSc1ccccc1C(=O)O)NC1CCCCCC1 was tested, and the “hERG current change (%, negative = inhibition) at 10uM” value was 1.79%.
For CC1CCCCC1NC(=O)CSc1ccc([N+](=O)[O-])cc1 (stereo not drawn), the “hERG current change (%, negative = inhibition) at 10uM” value was -52.6%.
With O=C(NC(NC(=S)Nc1ccc(Cl)cc1)C(Cl)(Cl)Cl)c1ccco1 (stereo not drawn) the “hERG current change (%, negative = inhibition) at 10uM” value was 0.15%.
COc1ccc(NC(=O)COC(=O)c2c3c(nc4ccccc24)CCCC3)cc1 was tested, and the “hERG current change (%, negative = inhibition) at 10uM” value was -3.3%.
For CC(C)Oc1ccc(C(=O)OCC(=O)NCCNC(=O)COC(=O)c2ccc(OC(C)C)cc2)cc1, the “hERG current change (%, negative = inhibition) at 10uM” value was 1.17%.
In the case of CCCOC(=O)Cn1cnc2scc(-c3ccc(C)cc3)c2c1=O, the “hERG current change (%, negative = inhibition) at 10uM” value is reported as 2.31%.
With O=C(CNC(=S)N(Cc1ccccc1)Cc1cccnc1)NCCN1CCOCC1 the “hERG current change (%, negative = inhibition) at 10uM” value was 2.12%.
Cc1ccc(CCNC(=O)C2CC(c3ccc(C(F)(F)F)cc3)=NO2)cc1 (stereo not drawn) was tested, and the “hERG current change (%, negative = inhibition) at 10uM” value was 18%.
COc1cc(/C=C2\SC(=S)N(CCC(=O)Nc3ccccc3O)C2=O)cc(OC)c1OC was tested, and the “hERG current change (%, negative = inhibition) at 10uM” value was 12.9%.
Cc1ccn2c(NC(C)(C)C)c(-c3cccs3)nc2c1 was tested, and the “hERG current change (%, negative = inhibition) at 10uM” value was -22.8%.
For CC(=O)Nc1cc(C(=O)N2CCOCC2)ccc1S(=O)(=O)c1ccc(C)cc1, the “hERG current change (%, negative = inhibition) at 10uM” value was 15.3%.
In the case of CNC(=S)NNC(=O)c1sccc1C, the “hERG current change (%, negative = inhibition) at 10uM” value is reported as 2.64%.
For COc1cccc(OC)c1C(=O)Nc1nc2ccc(S(C)(=O)=O)cc2s1, the “hERG current change (%, negative = inhibition) at 10uM” value was 3.36%.
In the case of CCOc1ccccc1Nc1cc(C)nc2nnnn12, the “hERG current change (%, negative = inhibition) at 10uM” value is reported as 12.9%.
In the case of O=P(C(Cl)Cl)(N1CCOCC1)N1CCOCC1, the “hERG current change (%, negative = inhibition) at 10uM” value is reported as 25%.
In the case of COc1ccc(NC(=O)Oc2cc(C)ccc2C(C)C)cc1, the “hERG current change (%, negative = inhibition) at 10uM” value is reported as 10.5%.
In the case of Cc1nc2ccccc2cc1C(=O)N(C)Cc1ccccc1, the “hERG current change (%, negative = inhibition) at 10uM” value is reported as 14.2%.
In the case of CCc1ccc2nc3sc(C(=O)O)cc3cc2c1, the “hERG current change (%, negative = inhibition) at 10uM” value is reported as 40.9%.
O=C(NCCCN1CCCC1=O)c1cccs1 was tested, and the “hERG current change (%, negative = inhibition) at 10uM” value was -4.09%.
